# According to paper PMC7188906:
# By UniProt entry, the sequences of proteins in these tests, tags left out.
# UniProt P63092: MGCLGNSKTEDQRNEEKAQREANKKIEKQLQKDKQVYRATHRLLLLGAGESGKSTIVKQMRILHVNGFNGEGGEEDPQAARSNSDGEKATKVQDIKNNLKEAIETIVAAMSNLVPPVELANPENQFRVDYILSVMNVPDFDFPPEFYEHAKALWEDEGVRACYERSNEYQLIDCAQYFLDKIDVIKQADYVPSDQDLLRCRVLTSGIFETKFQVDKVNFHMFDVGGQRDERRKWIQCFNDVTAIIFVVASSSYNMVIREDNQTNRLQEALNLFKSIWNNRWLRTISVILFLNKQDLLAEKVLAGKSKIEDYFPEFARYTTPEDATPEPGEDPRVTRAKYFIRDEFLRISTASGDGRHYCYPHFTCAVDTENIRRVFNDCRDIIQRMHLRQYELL
# UniProt P25098: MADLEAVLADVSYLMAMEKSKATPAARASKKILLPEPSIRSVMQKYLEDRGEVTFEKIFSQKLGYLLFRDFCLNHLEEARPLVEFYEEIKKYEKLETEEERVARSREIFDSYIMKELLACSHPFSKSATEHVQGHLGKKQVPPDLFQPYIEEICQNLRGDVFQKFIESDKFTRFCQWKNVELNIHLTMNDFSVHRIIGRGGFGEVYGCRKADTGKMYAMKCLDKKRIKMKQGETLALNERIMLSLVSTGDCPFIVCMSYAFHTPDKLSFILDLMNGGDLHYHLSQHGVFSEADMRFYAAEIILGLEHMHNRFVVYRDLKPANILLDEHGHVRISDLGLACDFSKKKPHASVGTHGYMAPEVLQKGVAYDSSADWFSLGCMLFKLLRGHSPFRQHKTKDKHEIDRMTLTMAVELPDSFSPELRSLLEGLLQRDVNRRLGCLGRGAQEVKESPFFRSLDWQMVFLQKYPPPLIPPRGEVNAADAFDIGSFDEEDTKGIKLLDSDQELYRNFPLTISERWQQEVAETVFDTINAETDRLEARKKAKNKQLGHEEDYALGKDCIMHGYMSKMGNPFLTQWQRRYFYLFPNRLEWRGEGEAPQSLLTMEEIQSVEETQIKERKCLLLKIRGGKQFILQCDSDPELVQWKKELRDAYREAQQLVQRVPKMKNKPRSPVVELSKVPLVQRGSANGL
# UniProt P50148: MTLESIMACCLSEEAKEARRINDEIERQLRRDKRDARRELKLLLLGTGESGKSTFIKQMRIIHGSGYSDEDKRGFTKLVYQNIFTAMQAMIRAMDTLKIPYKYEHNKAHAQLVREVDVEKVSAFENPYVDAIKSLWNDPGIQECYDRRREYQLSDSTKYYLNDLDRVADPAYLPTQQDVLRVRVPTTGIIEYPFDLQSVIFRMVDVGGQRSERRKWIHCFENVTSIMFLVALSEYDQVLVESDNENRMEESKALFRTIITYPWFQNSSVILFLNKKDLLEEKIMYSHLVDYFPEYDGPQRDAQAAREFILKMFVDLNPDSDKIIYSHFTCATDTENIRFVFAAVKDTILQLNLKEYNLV
# UniProt P63096: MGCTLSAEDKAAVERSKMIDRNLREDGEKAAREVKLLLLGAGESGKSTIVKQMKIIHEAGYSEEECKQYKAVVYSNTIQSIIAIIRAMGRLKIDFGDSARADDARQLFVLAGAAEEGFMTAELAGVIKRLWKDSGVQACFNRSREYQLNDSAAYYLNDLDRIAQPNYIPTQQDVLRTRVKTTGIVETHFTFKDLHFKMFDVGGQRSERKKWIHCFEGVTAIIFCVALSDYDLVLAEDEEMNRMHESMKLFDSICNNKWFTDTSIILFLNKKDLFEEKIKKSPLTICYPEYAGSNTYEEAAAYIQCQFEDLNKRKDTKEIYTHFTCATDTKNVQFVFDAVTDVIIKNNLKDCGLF
# UniProt P34947: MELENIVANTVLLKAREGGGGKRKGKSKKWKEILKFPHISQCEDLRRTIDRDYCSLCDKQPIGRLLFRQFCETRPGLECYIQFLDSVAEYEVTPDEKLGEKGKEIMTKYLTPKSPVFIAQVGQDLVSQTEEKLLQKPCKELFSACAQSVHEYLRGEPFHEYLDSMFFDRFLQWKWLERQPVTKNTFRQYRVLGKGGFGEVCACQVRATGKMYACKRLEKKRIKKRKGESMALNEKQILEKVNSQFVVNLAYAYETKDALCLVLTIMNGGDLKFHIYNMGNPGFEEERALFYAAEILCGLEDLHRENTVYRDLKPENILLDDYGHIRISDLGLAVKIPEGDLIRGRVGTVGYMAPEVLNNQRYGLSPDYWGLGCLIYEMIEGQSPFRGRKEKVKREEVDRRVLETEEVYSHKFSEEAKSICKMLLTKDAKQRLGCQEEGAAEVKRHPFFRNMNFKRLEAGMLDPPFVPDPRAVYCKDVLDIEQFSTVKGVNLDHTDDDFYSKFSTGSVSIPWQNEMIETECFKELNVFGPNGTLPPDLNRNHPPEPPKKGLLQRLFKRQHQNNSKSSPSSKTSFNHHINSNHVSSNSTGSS
# UniProt P35626: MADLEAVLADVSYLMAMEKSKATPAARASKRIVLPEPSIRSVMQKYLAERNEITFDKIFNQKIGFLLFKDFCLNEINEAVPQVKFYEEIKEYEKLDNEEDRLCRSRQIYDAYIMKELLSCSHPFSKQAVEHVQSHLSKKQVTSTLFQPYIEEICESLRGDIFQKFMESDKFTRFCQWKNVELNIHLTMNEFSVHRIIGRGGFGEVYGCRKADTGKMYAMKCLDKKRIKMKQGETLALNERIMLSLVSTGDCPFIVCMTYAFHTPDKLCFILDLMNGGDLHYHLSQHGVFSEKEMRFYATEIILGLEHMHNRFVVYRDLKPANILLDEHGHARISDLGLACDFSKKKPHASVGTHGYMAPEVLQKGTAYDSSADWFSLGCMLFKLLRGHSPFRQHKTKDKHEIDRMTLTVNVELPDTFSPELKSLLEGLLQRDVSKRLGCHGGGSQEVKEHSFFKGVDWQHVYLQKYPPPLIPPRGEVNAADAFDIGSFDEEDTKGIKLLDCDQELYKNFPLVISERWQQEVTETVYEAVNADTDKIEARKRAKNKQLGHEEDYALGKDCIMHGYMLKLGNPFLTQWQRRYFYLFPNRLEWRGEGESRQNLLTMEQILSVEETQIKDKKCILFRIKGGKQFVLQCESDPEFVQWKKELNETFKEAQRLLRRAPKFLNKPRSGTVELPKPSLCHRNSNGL
# UniProt P32298: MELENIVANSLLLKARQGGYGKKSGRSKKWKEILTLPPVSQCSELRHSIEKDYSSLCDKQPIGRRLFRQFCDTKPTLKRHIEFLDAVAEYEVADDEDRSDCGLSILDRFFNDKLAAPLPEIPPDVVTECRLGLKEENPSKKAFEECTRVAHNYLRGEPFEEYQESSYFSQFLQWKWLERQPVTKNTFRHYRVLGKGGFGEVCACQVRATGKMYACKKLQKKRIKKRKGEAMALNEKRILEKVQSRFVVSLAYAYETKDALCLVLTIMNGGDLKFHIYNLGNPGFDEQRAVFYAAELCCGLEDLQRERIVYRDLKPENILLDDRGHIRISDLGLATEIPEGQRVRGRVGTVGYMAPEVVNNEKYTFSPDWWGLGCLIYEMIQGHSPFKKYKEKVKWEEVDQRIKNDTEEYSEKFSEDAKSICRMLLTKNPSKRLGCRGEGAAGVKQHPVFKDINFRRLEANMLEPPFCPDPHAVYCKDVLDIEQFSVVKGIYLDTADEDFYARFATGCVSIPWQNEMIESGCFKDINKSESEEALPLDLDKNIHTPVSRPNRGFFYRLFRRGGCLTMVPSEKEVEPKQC
# UniProt Q14344: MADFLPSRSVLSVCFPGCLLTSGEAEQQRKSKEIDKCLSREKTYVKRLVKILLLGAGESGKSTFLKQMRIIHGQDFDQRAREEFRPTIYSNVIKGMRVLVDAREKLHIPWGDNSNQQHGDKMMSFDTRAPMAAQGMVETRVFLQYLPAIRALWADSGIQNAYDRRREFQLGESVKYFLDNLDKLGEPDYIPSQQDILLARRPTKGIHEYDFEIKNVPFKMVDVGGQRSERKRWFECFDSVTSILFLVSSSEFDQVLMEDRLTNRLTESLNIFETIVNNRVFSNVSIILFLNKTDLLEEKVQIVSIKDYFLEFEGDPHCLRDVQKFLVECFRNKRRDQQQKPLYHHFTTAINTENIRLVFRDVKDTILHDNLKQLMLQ
# UniProt P49407: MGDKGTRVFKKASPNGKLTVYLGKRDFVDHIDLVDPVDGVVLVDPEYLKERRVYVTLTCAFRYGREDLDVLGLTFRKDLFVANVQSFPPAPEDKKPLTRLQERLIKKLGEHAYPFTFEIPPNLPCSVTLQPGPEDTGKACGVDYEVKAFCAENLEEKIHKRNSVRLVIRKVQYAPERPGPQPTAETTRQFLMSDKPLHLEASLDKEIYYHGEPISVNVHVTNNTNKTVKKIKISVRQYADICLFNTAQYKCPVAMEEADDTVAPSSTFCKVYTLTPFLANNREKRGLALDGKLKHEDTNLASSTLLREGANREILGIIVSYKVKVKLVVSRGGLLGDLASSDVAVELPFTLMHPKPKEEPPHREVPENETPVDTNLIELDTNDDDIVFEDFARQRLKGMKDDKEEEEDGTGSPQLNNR
# No constants are given. Whether binding was seen depends on the method and setting. Binding seen in cells or lysates may run through a third protein. Some binding calls cover weakened binding; strength is not graded here. Sequences can lack the tags named with a protein.
# Key:
# human ACKR4-EYFP (human) [1] = target: T1, human ACKR4-EYFP (human) (UniProt Q9NPB9); assay: FRET or BRET; live HeLa cells co-transfected with receptor-EYFP (acceptor) and Nluc fusion (donor), DNA ratio 3:1; NetBRET at steady state, before chemokine addition; PBS with 5% glucose, 5 μM coelenterazine H; in Figure 3J-L cells pretreated 2 h with 30 μM cmpd101 or DMSO
# T1 sequence: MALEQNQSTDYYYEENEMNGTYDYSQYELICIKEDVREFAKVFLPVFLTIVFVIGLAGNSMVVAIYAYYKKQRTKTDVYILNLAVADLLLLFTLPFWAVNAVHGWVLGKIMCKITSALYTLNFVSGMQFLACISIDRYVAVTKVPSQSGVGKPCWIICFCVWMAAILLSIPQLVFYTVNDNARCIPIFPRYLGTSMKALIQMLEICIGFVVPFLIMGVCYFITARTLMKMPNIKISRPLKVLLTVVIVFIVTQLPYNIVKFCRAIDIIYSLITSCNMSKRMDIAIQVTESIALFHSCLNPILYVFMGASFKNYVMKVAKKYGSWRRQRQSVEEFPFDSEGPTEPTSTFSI
# human ACKR4-EYFP (human) [2] = target: T1, human ACKR4-EYFP (human); assay: FRET or BRET; as a1, but after stimulation of the cells with chemokine (CCL19, CCL21 or CCL25; graded concentrations, 114 nM, 352 nM, 408 nM or 1.5 μM as the legends say); NetBRET, corrected NetBRET or area under the curve; in Figure 3J-L cells pretreated 2 h with 30 μM cmpd101 or DMSO
# [3] = target: T2, tailless human ACKR4t-EYFP (ACKR4 1-304) (human) (UniProt Q9NPB9); assay: FRET or BRET; live HeLa cells co-transfected with receptor-EYFP (acceptor) and Nluc fusion (donor), DNA ratio 3:1; NetBRET at steady state, before chemokine addition; PBS with 5% glucose, 5 μM coelenterazine H; in Figure 3J-L cells pretreated 2 h with 30 μM cmpd101 or DMSO
# T2 sequence: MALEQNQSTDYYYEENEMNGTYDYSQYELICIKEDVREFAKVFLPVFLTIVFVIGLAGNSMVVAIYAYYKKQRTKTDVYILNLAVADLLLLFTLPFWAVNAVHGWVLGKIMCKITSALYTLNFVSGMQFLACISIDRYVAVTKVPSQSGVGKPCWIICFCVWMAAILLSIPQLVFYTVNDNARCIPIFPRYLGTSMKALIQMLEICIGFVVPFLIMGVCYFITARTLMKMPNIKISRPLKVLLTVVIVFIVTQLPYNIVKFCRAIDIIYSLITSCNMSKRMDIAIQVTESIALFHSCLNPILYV
# [4] = target: T2, tailless human ACKR4t-EYFP (ACKR4 1-304) (human); assay: FRET or BRET; as a1, but after stimulation of the cells with chemokine (CCL19, CCL21 or CCL25; graded concentrations, 114 nM, 352 nM, 408 nM or 1.5 μM as the legends say); NetBRET, corrected NetBRET or area under the curve; in Figure 3J-L cells pretreated 2 h with 30 μM cmpd101 or DMSO
binding (human ACKR4-EYFP (human) [1]),binding (human ACKR4-EYFP (human) [2]),binding [3],binding [4],Substance
no binding,no binding,–,–,human Gαs-Nluc (from UniProt P63092 1-394)
–,binds,no binding,no binding,human GRK2-Nluc (from UniProt P25098 1-689) (enzyme)
no binding,no binding,–,–,human Gαq-Nluc (from UniProt P50148 1-359)
no binding,no binding,–,–,human Gαi-Nluc (from UniProt P63096 1-354)
–,no binding,–,–,human GRK5-Nluc (from UniProt P34947 1-590) (enzyme)
–,binds,no binding,no binding,human GRK3-Nluc (from UniProt P35626 1-688) (enzyme)
–,no binding,–,–,human Nluc-GRK4 (from UniProt P32298 1-578) (enzyme)
no binding,no binding,–,–,human Gα13-Nluc (from UniProt Q14344 1-377)
binds,binds,–,–,human β-arrestin1-Nluc (from UniProt P49407 1-418)
